Measurements reported in PMC4242493.
The list shows a part of the results. The list includes weakly bound sequences.

These sequences were tested against MaxL homodimer (UniProt P61244) (assay: universal protein-binding microarray (PBM)). Conditions: PBS-based mixture, 10 nM His-tagged protein dimer, 2% milk, 200 ng/uL BSA, 50 ng/uL salmon testes DNA, 0.02% TX-100; detection with Alexa 488 anti-His …; high values mean tight binding; most listed sequences are background and not binding sites; double strand, one strand shown.
Chain of UniProt P61244 (P61244 whole entry): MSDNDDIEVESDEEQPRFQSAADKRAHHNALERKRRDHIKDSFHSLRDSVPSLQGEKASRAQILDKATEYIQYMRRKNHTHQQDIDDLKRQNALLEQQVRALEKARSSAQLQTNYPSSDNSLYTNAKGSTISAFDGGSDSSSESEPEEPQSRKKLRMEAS

Sequence	binding signal (normalized occupancy)
TGGGCAAA	0.0704
AGTAGAGA	0.0707
CAGCTGAG	0.0664
ACCGCATC	0.0749
ATGGGCCC	0.0703
GGCAGGCC	0.0644
CTCGCAAA	0.0742
GATTGGGC	0.0764
GGCATGAC	0.0858
GGCCGACA	0.0686
ATAGTCAG	0.0801
ACTAGTCA	0.0755
CAAGCGAA	0.0755
AGTAATGG	0.0783
GACGCCCA	0.073
AGGAAGCG	0.071
ACTAGATG	0.0776
GATCTATA	0.0774
GGTACTAA	0.0754
CGGGCGTA	0.0722
ATTGGGAG	0.076
CCTGTTGC	0.0752
AGGGGGAC	0.0712
CAATGTGA	0.0948
GAGCGATC	0.0691

Sequence	binding signal (normalized occupancy)
CTACTTCC	0.0742
AAAGTACC	0.0775
CCACAAAA	0.0716
CCGCTACG	0.0679
CGTGACAC	0.093
GCATACGA	0.0814
TGCGGTAA	0.0754
GGGGTCAA	0.0904
CGGATGGA	0.0765
AAAATGTG	0.0886
ATACCTAT	0.0781
ACGATGCC	0.073
ATCCCCCC	0.0808
TGACGACA	0.0736
CCTGCGTA	0.0745
AGGTGACA	0.0777
CCTAGGTA	0.0715
CCGGATCC	0.0759
CATGCTTA	0.104
TATAGACA	0.0807
ACTACGAA	0.0738
ACCGGTCC	0.0659
ACCATACA	0.0822
ATAAATCA	0.0808
AAAGTCCC	0.0644

Sequence	binding signal (normalized occupancy)
TCAATGAA	0.0799
ATGGGTCC	0.0886
GACTGCTC	0.0675
TCCATCCA	0.0825
CGTCCACC	0.0751
AGTTGGTA	0.074
AGCATACA	0.087
AGGTTTCA	0.0727
AAGAGCGA	0.0682
CTGCTTCA	0.0751
AGCTTTGC	0.0662
AGCACAGG	0.0743
AACCACTT	0.073
CGGCGTAG	0.0712
CGGACATC	0.077
TATCGTCA	0.0811
CTTGGAGC	0.0677
TGCCGGAA	0.0695
CCAAGTCA	0.0739
TTCAGGAA	0.0721
ACTGCGGG	0.0665
CGAGTGCC	0.0682
GGCGTCTA	0.0705
ACAACCGC	0.0762
AGCTGAGA	0.0685

Sequence	binding signal (normalized occupancy)
AGATATAG	0.0833
CGGCGGTA	0.0723
ATACTTTA	0.0824
CAGGGTGC	0.0727
GTTCGACA	0.0752
AAGGGTGC	0.0783
CCATTAAA	0.0779
AGGCCCAT	0.0774
CCATTAAG	0.0744
ACCCAAGT	0.0781
GCATTGCC	0.0746
CTGCTCTC	0.0736
CAGTTTCA	0.0697
GTCGTGTA	0.0822
GCTGACCA	0.0688
GGCTCGGA	0.0728
GGCGAATA	0.0819
CAGTGCTC	0.0745
ATCATTCC	0.0804
TCCTTAGA	0.0714
ACAGGAAC	0.0773
AACATAGA	0.0802
AATCCGCT	0.0713
GGCCTCTA	0.0736
GAGCACTC	0.0779

Sequence	binding signal (normalized occupancy)
CCGCCCTA	0.0723
CAGCCCAA	0.0773
AACAAAGA	0.0725
AGTCTACC	0.0714
ATTGGGGA	0.0777
ACGAACGC	0.0665
CATATAGC	0.0823
TCTGTACA	0.082
AAAGGCAA	0.0733
CGTCGTCC	0.0763
AGTTTCAT	0.0714
ATGCCATC	0.0815
ACCAGTAC	0.0725
AGATGTTC	0.0775
CGGTCGCC	0.0673
ATCTGGTA	0.0783
GGCCTCAC	0.0746
AGGACGAT	0.0759
CAAATGCA	0.0784
GCCCCGCC	0.0761
ATGCATCA	0.0872
CCTCAGGC	0.068
GGGCTGCA	0.0734
GGCTGTCA	0.073
AGAATACT	0.0797

Sequence	binding signal (normalized occupancy)
ACGGAAAC	0.0713
AGTACGGC	0.0736
AGTGCAGA	0.0738
GCACGCGC	0.15
GCCGGAAC	0.0672
CCGCGTCC	0.0681
ACCTGTAA	0.0823
AAGGCGCA	0.0713
ATTCGAAC	0.0746
GACAGAGC	0.0684
CTTCTAAA	0.0721
CTGTGTCA	0.0742
AAGCCCAA	0.0729
GGATATAA	0.0786
GATATTAA	0.0772
ACTGTCCA	0.0772
AGACATCA	0.0757
CATGCGTA	0.122
GGACGCCC	0.0668
AATTTACA	0.0753
AGAACACT	0.0724
GTGACCAA	0.0765
GCGATACC	0.0717
ACGCTGGA	0.0772
GTGGCACA	0.0835

Sequence	binding signal (normalized occupancy)
ATTGTATC	0.0821
CAAGCCCG	0.0691
AGTTTATC	0.0786
CTTGTATC	0.0779
AAAGGATT	0.0758
ATAGAACC	0.0766
AACTGCGT	0.0718
AGTGTTTG	0.0795
CTCGAGAC	0.0785
AGAGACCT	0.0737
GAAAAACA	0.0763
ACTTCGTA	0.0713
AGGGGTAC	0.078
GGCGTGAC	0.0927
CATAGTCA	0.0807
GATCCCGC	0.0762
AATAATAA	0.0826
ATACGGAA	0.0756
CTGGTCCA	0.0713
AGCGGGTA	0.0723
ATAGCGAA	0.0727
GTTAGCGA	0.0772
